From the supplement of paper PMC11417369
± gives the standard deviation of the averaged measurements. This is one part of the list.

Each sequence was assayed on PfAP2-LT AP2 domain (GST-tagged) (assay: gcPBM binding intensity (ln(normalized median fluorescence intensity)); higher = stronger DNA binding).
Summary of the method: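 An Agilent 4 × 180k array carrying primer-extended double-stranded 36-bp intergenic genomic probes and negative controls received GST-tagged P. falciparum DNA-binding domains expressed in E. coli, about 25 μg on average, for 1 h. The binding buffer contained 1× PBS, 1% milk, 0.2 mg/ml BSA, 0.5% salmon testes DNA and 0.03% Triton X-100. Binding intensity is the top Masliner-normalised natural-log median intensity across replicate spots of either probe orientation, read after Alexa488 anti-GST antibody staining and a 488 nm scan.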
With “ACATTATATCTAAGTACACACATTAATTTTTTTTTT [CACACA_site7850]” the “gcPBM binding intensity (ln)” value was 8.87 ± 0.4.
For “TTTATTTTGATTTAATGTACAAATAGTAAAACAAAA [XGTACX_site4789]”, the “gcPBM binding intensity (ln)” value was 8.39 ± 0.37.
With “CTATAACCTCTGTTCACACATATATCATAATTTACA [CACACA_site5446]” the “gcPBM binding intensity (ln)” value was 8.87 ± 0.36.
With “TATTTAAAAGCATATACACACAACTGGAATGAAAAG [CACACA_site6128]” the “gcPBM binding intensity (ln)” value was 9.05 ± 0.42.
With “GTTTCAAAATTAAACACACACAAAAAAAAAAAAAAA [CACACA_site2680]” the “gcPBM binding intensity (ln)” value was 8.78 ± 0.52.
In the case of “TATTATATCTTTATTATTCATCTAAAATTTGTATTT [TGCATGCA_negctrl_site233]”, the “gcPBM binding intensity (ln)” value is reported as 8.59 ± 0.53.
“TTGATTTACTATAGATGTACGTAAAATATAAATAAA [XGTACX_site8256]” was tested, and the “gcPBM binding intensity (ln)” value was 8.52 ± 0.45.
For “ATAAAAAATAAATATATACATACATACATACATATA [XGTACX_negctrl_site507]”, the “gcPBM binding intensity (ln)” value was 8.86 ± 0.45.
With “ATAAAACAAAAATATAAACACACATACATTGGTTTT [CACACA_site8809]” the “gcPBM binding intensity (ln)” value was 8.93 ± 0.44.
With “TTTTCAAAAATATACACACACATAAATATAGGTATA [CACACA_site6506]” the “gcPBM binding intensity (ln)” value was 9.12 ± 0.29.
For “AATTTAAAAGAAAAAGAAAAATAATAAACAGAAGCA [XGTACX_negctrl_site503]”, the “gcPBM binding intensity (ln)” value was 8.62 ± 0.52.
For “TTATATATATATTATAGTACATATATAATATAGTAA [XGTACX_site6869]”, the “gcPBM binding intensity (ln)” value was 8.54 ± 0.4.
With “ATATATGAGCAAAAATATATAAGATAACACATAAAT [CACACA_negctrl_site167]” the “gcPBM binding intensity (ln)” value was 9.09 ± 0.41.
In the case of “TCTCTATAAATAAATACATGCATATAATAAAGAATT [TGCATGCA_site710]”, the “gcPBM binding intensity (ln)” value is reported as 8.68 ± 0.35.
In the case of “ATTTTTTTTATTTTTTCAATATATATATATATATAT [CACACA_negctrl_site1444]”, the “gcPBM binding intensity (ln)” value is reported as 8.9 ± 0.41.
“TTATATATATATAATACACACATAATAATATATTTA [CACACA_site3038]” was tested, and the “gcPBM binding intensity (ln)” value was 8.68 ± 0.4.
With “GAAATAGAAATAAAATAGGCATACAATAGAACTAAG [TGCATGCA_negctrl_site537]” the “gcPBM binding intensity (ln)” value was 9.01 ± 0.56.
For “TATTTTACAAAATAAGGTACGTAAATATATGGTAGG [XGTACX_site2133]”, the “gcPBM binding intensity (ln)” value was 8.83 ± 0.42.
“AAATATCTTTTATATTGTACATATTCCTTATGTGGA [XGTACX_site7638]” was tested, and the “gcPBM binding intensity (ln)” value was 8.71 ± 0.42.
With “CCTTATTATTATTTTACACACGTCCTAATAAGAGGA [CACACA_site1319]” the “gcPBM binding intensity (ln)” value was 8.88 ± 0.31.
With “TATTTAAAAATATATACACACATTTTATATTATTAT [CACACA_site781]” the “gcPBM binding intensity (ln)” value was 8.77 ± 0.47.
In the case of “AAAAACAAAAAAGAAGCACACATATATATATATATA [CACACA_site8779]”, the “gcPBM binding intensity (ln)” value is reported as 9.89 ± 0.3.
For “AATATATAAATAAATACACACATAAAATAGAAATAT [CACACA_site1663]”, the “gcPBM binding intensity (ln)” value was 9.23 ± 0.43.
For “TTTATCTGATATATTACACACAAAAAAAAAAAAAAA [CACACA_site7637]”, the “gcPBM binding intensity (ln)” value was 8.63 ± 0.4.
For “AATATTATATATATGGGTACTAATTCCTTTAATTTC [XGTACX_site102]”, the “gcPBM binding intensity (ln)” value was 8.59 ± 0.47.
“TTTTTTTAAACTGAAAGTACTTATTCCAAGAAAATA [XGTACX_site50]” was tested, and the “gcPBM binding intensity (ln)” value was 7.96 ± 0.3.
For “ATATATATATCAACAACACACGATTAACTAAAAAAA [CACACA_site302]”, the “gcPBM binding intensity (ln)” value was 8.88 ± 0.47.
In the case of “ATAATGACTAAATTTAAACACACAAGGGGAGTTTAC [CACACA_site8209]”, the “gcPBM binding intensity (ln)” value is reported as 8.79 ± 0.5.
For “CGCACAAAAATATACACACACACATCTATATTTATT [CACACA_site7675]”, the “gcPBM binding intensity (ln)” value was 9.79 ± 0.42.
For “AAAACAAATGAGTACACACACATAAAAGTTGAAAAT [CACACA_site6238]”, the “gcPBM binding intensity (ln)” value was 9.65 ± 0.49.
With TACCCATATTAATATGTGCGCATATAAAAGTCAAAC the “gcPBM binding intensity (ln)” value was 9.09 ± 0.35.
With “TATATATATATATACACACACATATATATATATATA [CACACA_site1346]” the “gcPBM binding intensity (ln)” value was 9.685 ± 0.05.
For “GCATAAGAAATAAATAGTACACACATAGACACACAC [XGTACX_site3095]”, the “gcPBM binding intensity (ln)” value was 9.86 ± 0.45.
With “ATAAGATATGTATATACACACATTTATTTACATATA [CACACA_site3263]” the “gcPBM binding intensity (ln)” value was 8.94 ± 0.4.
In the case of “AGTATACATATATATACACACACACCGATATATATA [CACACA_site8357]”, the “gcPBM binding intensity (ln)” value is reported as 9.74 ± 0.23.
With “TTAATATATTAAATCTTACACACTAAAAAATATGTA [CACACA_site307]” the “gcPBM binding intensity (ln)” value was 8.43 ± 0.35.
“TAAAAAAAATAAACGTGTACATAAAAATGAATATGT [XGTACX_site119]” was tested, and the “gcPBM binding intensity (ln)” value was 8.91 ± 0.4.
For “AACGTTAAAAAAAAAATATATATAAGGAGAAAGCAC [XGTACX_negctrl_site338]”, the “gcPBM binding intensity (ln)” value was 8.96 ± 0.52.
For “GAAAATATTATAGCACCACACACTTATTTTATATAT [CACACA_site2265]”, the “gcPBM binding intensity (ln)” value was 9.18 ± 0.33.
“TATGCGTCTTGCCTTGCACACTTTTATGAAAAAAAA [CACACA_site5174]” was tested, and the “gcPBM binding intensity (ln)” value was 8.79 ± 0.4.
In the case of “TAATTCGCAAAAGAAAGAAATTAAGAAAAAGAAAAA [XGTACX_negctrl_site614]”, the “gcPBM binding intensity (ln)” value is reported as 8.4 ± 0.64.
With “TTCAATAGTAAGTATACACACATATATATATATAAA [CACACA_site2687]” the “gcPBM binding intensity (ln)” value was 9.14 ± 0.35.
In the case of “CAAGCTATGTATTCTACACACACATACACCCATATA [CACACA_site9133]”, the “gcPBM binding intensity (ln)” value is reported as 9.52 ± 0.29.
For “TTTTTAAAAATATACACACACAGATATTATAGATAT [CACACA_site6511]”, the “gcPBM binding intensity (ln)” value was 9.14 ± 0.21.
For “TTTCTTTTTTTTTTTTCATTGATCCATTTATGATTA [TGCATGCA_negctrl_site225]”, the “gcPBM binding intensity (ln)” value was 8.52 ± 0.56.
With “TTATAGGTTCTATACATATATTTATATATGTACAGA [CACACA_negctrl_site60]” the “gcPBM binding intensity (ln)” value was 8.55 ± 0.41.
With “TATGAAAAAATATATACACACATAATAAAGGTATAT [CACACA_site3737]” the “gcPBM binding intensity (ln)” value was 9.1 ± 0.38.
For “TTTGTTTTAAATATTATACACACGTAAAAGTATAAT [CACACA_site7954]”, the “gcPBM binding intensity (ln)” value was 8.7 ± 0.36.
“TAATATTATATATAAACACACATACCCATGTAAATA [CACACA_site5170]” was tested, and the “gcPBM binding intensity (ln)” value was 8.98 ± 0.33.
“TCGTACTTGTATTATGCACACATATAATTAAACATA [CACACA_site9089]” was tested, and the “gcPBM binding intensity (ln)” value was 8.97 ± 0.32.
In the case of “AAAAAAAAAAATATATTATTTTACTTGTTTATTTTT [GTGCAC_negctrl_site435]”, the “gcPBM binding intensity (ln)” value is reported as 8.43 ± 0.52.
In the case of “AATAATCAAATATTAAAAATTGTGCAAAAAAAAAAA [XGTACX_negctrl_site399]”, the “gcPBM binding intensity (ln)” value is reported as 8.78 ± 0.51.
In the case of “ATATATATATATATATGTACATAATAATATATATTA [XGTACX_site111]”, the “gcPBM binding intensity (ln)” value is reported as 9.09 ± 0.47.
For “TAAAAGGTGTATATAATACACACGTGGGATTAGAAT [CACACA_site610]”, the “gcPBM binding intensity (ln)” value was 9.18 ± 0.42.
In the case of “AAAATAAACAATGAACAATAAACAATGAACAATGAA [CACACA_negctrl_site1194]”, the “gcPBM binding intensity (ln)” value is reported as 9.05 ± 0.49.
For “TATATAAAGCATTGTAGTACTACCAATATTTTTTTT [XGTACX_site3523]”, the “gcPBM binding intensity (ln)” value was 8.7 ± 0.58.
